This note sets out measurements from paper PMC4336329 (PLoS ONE, 2015).

The whole screen tested about 310,000 compounds, of which about 2,200 (0.71%) showed an effect of 50% or more. The effect is printed as a negative number. Some of the results follow.

In this assay the target is human ether-à-go-go-related gene (hERG) potassium channel (human, UniProt Q12809). As to the kind of experiment: primary screen, population patch clamp on CHO cells stably expressing hERG.
Sequence of human ether-à-go-go-related gene (hERG) potassium channel (Q12809 whole entry, looked up): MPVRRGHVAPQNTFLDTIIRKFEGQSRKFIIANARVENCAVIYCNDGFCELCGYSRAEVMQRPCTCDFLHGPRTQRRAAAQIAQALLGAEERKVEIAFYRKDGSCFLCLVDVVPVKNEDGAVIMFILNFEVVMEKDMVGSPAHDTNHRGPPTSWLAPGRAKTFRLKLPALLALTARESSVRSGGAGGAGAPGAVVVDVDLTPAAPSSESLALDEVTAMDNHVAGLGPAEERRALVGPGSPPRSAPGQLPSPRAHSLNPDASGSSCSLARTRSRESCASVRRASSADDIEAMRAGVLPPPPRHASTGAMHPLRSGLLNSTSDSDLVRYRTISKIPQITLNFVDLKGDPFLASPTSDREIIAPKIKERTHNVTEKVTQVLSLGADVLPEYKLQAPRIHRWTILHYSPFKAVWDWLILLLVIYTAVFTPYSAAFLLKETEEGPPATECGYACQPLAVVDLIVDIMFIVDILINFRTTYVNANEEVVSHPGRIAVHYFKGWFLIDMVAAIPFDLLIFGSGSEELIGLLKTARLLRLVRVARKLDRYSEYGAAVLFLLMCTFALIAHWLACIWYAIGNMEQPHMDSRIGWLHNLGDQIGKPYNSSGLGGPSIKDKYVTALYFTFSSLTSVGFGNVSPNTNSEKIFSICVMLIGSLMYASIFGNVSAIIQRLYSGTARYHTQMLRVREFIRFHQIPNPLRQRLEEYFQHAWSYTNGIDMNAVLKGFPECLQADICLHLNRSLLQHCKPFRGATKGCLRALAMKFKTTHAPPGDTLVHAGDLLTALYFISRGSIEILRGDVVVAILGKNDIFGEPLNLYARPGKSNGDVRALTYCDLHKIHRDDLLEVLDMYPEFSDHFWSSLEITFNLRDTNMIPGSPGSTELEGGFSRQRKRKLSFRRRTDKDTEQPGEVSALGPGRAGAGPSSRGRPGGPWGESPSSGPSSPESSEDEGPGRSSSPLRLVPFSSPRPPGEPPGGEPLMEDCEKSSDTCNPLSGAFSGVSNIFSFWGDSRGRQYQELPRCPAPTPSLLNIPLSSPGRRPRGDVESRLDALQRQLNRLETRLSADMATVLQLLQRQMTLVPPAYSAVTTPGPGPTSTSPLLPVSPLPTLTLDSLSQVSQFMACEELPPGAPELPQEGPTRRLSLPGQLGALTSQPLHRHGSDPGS
Consider `Cc1ccccc1N1CCN(C2CCCN(C(=O)c3cn4c(C)cccc4n3)C2)CC1` (stereo not shown), for which the “hERG current change (%, negative = inhibition) at 1uM” value is recorded as -8.36%.

Regarding `COC(=O)C(=C/C=C/N1CCOCC1)C(=O)OC`, the “hERG current change (%, negative = inhibition) at 1uM” value was 13.9%.

As to `CCCCC(C(=O)NC1CCCC1)N(C(=O)c1snc(C(N)=O)c1N)c1ccc(F)cc1` (stereo not shown), the “hERG current change (%, negative = inhibition) at 1uM” value was 8.6%.

With `O=[N+]([O-])c1ccccc1/C=C/CN1CCCCC1CO` (stereo not shown), the “hERG current change (%, negative = inhibition) at 1uM” value came out at 17.6%.

With `Cc1nn(Cc2ccccc2)c(C)c1NC(=O)CCCn1nc(C)c([N+](=O)[O-])c1C`, the “hERG current change (%, negative = inhibition) at 1uM” value amounted to 2.73%.

With `CCC(CCC(=O)Nc1cccc(C(=O)O)c1)C(=O)O` (stereo not shown), the “hERG current change (%, negative = inhibition) at 1uM” value was 2.18%.

As for `COC(=O)c1cn(Cc2cccc(C)c2)nn1`, the “hERG current change (%, negative = inhibition) at 1uM” value came to 1.48%.

On to `Cc1sc2ncnc(OCC(=O)NCc3cccs3)c2c1C`, for which the “hERG current change (%, negative = inhibition) at 1uM” value came to 13.2%.

In the case of `Cc1ccccc1C(=O)c1cccn1CC(=O)NCc1ccccc1`, the “hERG current change (%, negative = inhibition) at 1uM” value is 8.28%.

Take `O=C(c1cccs1)c1no[n+]([O-])c1C(=O)c1cccs1`: the “hERG current change (%, negative = inhibition) at 1uM” value is on record as -5.95%.

Consider `Cc1ccccc1NC(=O)CSc1nc(N)c(C#N)cc1C#N`, for which the “hERG current change (%, negative = inhibition) at 1uM” value stood at 5.28%.

As to `CCOC(=O)/C(C#N)=C/c1c(N2CCN(CC)CC2)nc2c(C)cccn2c1=O`, the “hERG current change (%, negative = inhibition) at 1uM” value came out at 2.17%.

For the compound `O=C(O)CSc1ccc(S(=O)(=O)N2CCCC2)cn1`, the “hERG current change (%, negative = inhibition) at 1uM” value turned out to be 3%.

As for `Nc1c(C(=O)CSc2nnc(N3CCOCC3)n2-c2cccc(F)c2)c(=O)[nH]c(=O)n1C1CC1`, the “hERG current change (%, negative = inhibition) at 1uM” value amounted to 24.9%.

With `CCOC(=O)c1c(COc2ccccc2)oc2ccc(O)cc12`, the “hERG current change (%, negative = inhibition) at 1uM” value was 0.989%.

In the case of `COc1ccc(-c2nnc(NC(=O)c3c(OC)cccc3OC)s2)cc1`, the “hERG current change (%, negative = inhibition) at 1uM” value came out at 13.7%.

`CNC(=O)C(=O)NCC(c1cccs1)S(=O)(=O)c1ccc(C)cc1` (stereo not shown): the “hERG current change (%, negative = inhibition) at 1uM” value came out at 17.1%.

Turning to `CC(C)c1ccc(C2C3=C(COC3=O)Nc3cc4c(cc32)OCO4)cc1` (stereo not shown), the “hERG current change (%, negative = inhibition) at 1uM” value is -2.91%.

As for `C=CCOC(=O)/C(=C\c1cccc2ccccc12)NC(=O)c1ccccc1`, the “hERG current change (%, negative = inhibition) at 1uM” value turned out to be 6.44%.

For the compound `Clc1ccc(-c2cc3ccccc3[nH]2)cc1`, the “hERG current change (%, negative = inhibition) at 1uM” value was -6.82%.

For the compound `CCOc1cc(N2CCOCC2)c(OCC)cc1NC(=O)Cc1ccccc1OC`, the “hERG current change (%, negative = inhibition) at 1uM” value is given as 3.05%.

Consider `CCOC(=O)c1cnn2c(N)c(C#N)cnc12`, for which the “hERG current change (%, negative = inhibition) at 1uM” value is given as 14.6%.

Regarding `COc1ccc(NS(=O)(=O)c2cc(NC(=O)c3ccncc3)ccc2N2CCOCC2)cc1`, the “hERG current change (%, negative = inhibition) at 1uM” value was 10.6%.

Regarding `CS(=O)(=O)N1N=C(c2ccccc2)CC1c1ccc2nccnc2c1` (stereo not shown), the “hERG current change (%, negative = inhibition) at 1uM” value was found to be 6.57%.

As to `Cc1cc(C(=O)COc2ccccc2C(N)=O)c(C)n1CC1CCCO1` (stereo not shown), the “hERG current change (%, negative = inhibition) at 1uM” value was determined as 7.72%.
